Measured values as given in the supplement of paper PMC10369915.
The other results are listed elsewhere or left out. No stated cut-off is given here; in the data, active = 3.2 or more and inactive = the rest. Only a few entries rise above the background.

Experiments:
Assay in all cases: enrichment score (SH2-bound / input frequency) (ratio); bacterial display of known human phosphotyrosine sites (pTyr-Var adds point mutants) read by sequencing; higher = stronger binding; tyrosines were phosphorylated by kinases first
Conditions in all cases: peptide library: pTyr-Var
SHP2 C-SH2 domain E139D = molecular target: SHP2 C-SH2 domain E139D
[1] = molecular target: SHP2 C-SH2 domain wild-type
SHP2 N-SH2 domain L43F = molecular target: SHP2 N-SH2 domain L43F
SHP2 N-SH2 domain T42A = molecular target: SHP2 N-SH2 domain T42A
SHP2 N-SH2 domain T52S = molecular target: SHP2 N-SH2 domain T52S
[2] = molecular target: SHP2 N-SH2 domain wild-type

Measured: enrichment score
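Further: displayed peptides selected on beads carrying the immobilized SH2 domain, with library peptides lacking any tyrosine serving as negative controls.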

B1: RET_Y809_R813Q (peptide)
chain: VEYAKYGSLQG
inactive: SHP2 C-SH2 domain E139D 0.592 | [1] 1.74 | SHP2 N-SH2 domain L43F 0.62 | SHP2 N-SH2 domain T42A 0.661 | SHP2 N-SH2 domain T52S 0.757 | [2] 0.607

B2: RET_Y809_V804L (peptide)
chain: LEYAKYGSLRG
inactive: SHP2 C-SH2 domain E139D 0.836 | [1] 0.996 | SHP2 N-SH2 domain L43F 0.924 | SHP2 N-SH2 domain T42A 0.637 | SHP2 N-SH2 domain T52S 0.801 | [2] 0.605

B3: RET_Y809_V804M (peptide)
chain: MEYAKYGSLRG
inactive: SHP2 C-SH2 domain E139D 0.824 | [1] 0.658 | SHP2 N-SH2 domain L43F 0.579 | SHP2 N-SH2 domain T42A 0.509 | SHP2 N-SH2 domain T52S 0.883 | [2] 0.678

B4: RET_Y809_V804M_YF (peptide)
chain: MEFAKYGSLRG
inactive: SHP2 C-SH2 domain E139D 0.774 | [1] 0.649 | SHP2 N-SH2 domain L43F 0.489 | SHP2 N-SH2 domain T42A 0.556 | SHP2 N-SH2 domain T52S 0.67 | [2] 0.575

B5: RET_Y809_YF (peptide)
chain: VEFAKYGSLRG
inactive: SHP2 C-SH2 domain E139D 0.81 | [1] 0.968 | SHP2 N-SH2 domain L43F 0.64 | SHP2 N-SH2 domain T42A 0.657 | SHP2 N-SH2 domain T52S 0.774 | [2] 0.899

B6: RET_Y826_Y826S (peptide)
chain: KVGPGSLGSGG
inactive: SHP2 C-SH2 domain E139D 0.713 | [1] 0.653 | SHP2 N-SH2 domain L43F 0.615 | SHP2 N-SH2 domain T42A 0.64 | SHP2 N-SH2 domain T52S 0.517 | [2] 0.762

B7: RET_Y900 (peptide)
chain: LSRDVYEEDSY
inactive: SHP2 C-SH2 domain E139D 0.464 | [1] 0.461 | SHP2 N-SH2 domain L43F 0.704 | SHP2 N-SH2 domain T42A 0.612 | SHP2 N-SH2 domain T52S 0.555 | [2] 0.762

B8: RET_Y900_R897Q (peptide)
chain: LSQDVYEEDSY
inactive: SHP2 C-SH2 domain E139D 0.568 | [1] 0.688 | SHP2 N-SH2 domain L43F 0.545 | SHP2 N-SH2 domain T42A 0.514 | SHP2 N-SH2 domain T52S 0.556 | [2] 0.612

B9: RET_Y900_YF (peptide)
chain: LSRDVYEEDSF
inactive: SHP2 C-SH2 domain E139D 0.681 | [1] 0.669 | SHP2 N-SH2 domain L43F 2.15 | SHP2 N-SH2 domain T42A 0.509 | SHP2 N-SH2 domain T52S 0.52 | [2] 0.716

B10: RET_Y905_K907E (peptide)
chain: YEEDSYVERSQ
inactive: SHP2 C-SH2 domain E139D 0.576 | [1] 0.948 | SHP2 N-SH2 domain L43F 0.51 | SHP2 N-SH2 domain T42A 0.612 | SHP2 N-SH2 domain T52S 0.379 | [2] 0.737

B11: RET_Y905_K907E_YF (peptide)
chain: FEEDSYVERSQ
inactive: SHP2 C-SH2 domain E139D 0.716 | [1] 0.514 | SHP2 N-SH2 domain L43F 0.531 | SHP2 N-SH2 domain T42A 0.543 | SHP2 N-SH2 domain T52S 0.612 | [2] 0.56

B12: RET_Y905_K907T_YF (peptide)
chain: FEEDSYVTRSQ
inactive: SHP2 C-SH2 domain E139D 0.822 | [1] 0.569 | SHP2 N-SH2 domain L43F 0.655 | SHP2 N-SH2 domain T42A 0.652 | SHP2 N-SH2 domain T52S 0.647 | [2] 0.581

B13: RET_Y905_YF (peptide)
chain: FEEDSYVKRSQ
inactive: SHP2 C-SH2 domain E139D 0.646 | [1] 0.468 | SHP2 N-SH2 domain L43F 0.616 | SHP2 N-SH2 domain T42A 0.499 | SHP2 N-SH2 domain T52S 0.5 | [2] 0.653

B14: RET_Y928 (peptide)
chain: LFDHIYTTQSD
inactive: SHP2 C-SH2 domain E139D 1.32 | [1] 0.913 | SHP2 N-SH2 domain L43F 1.61 | SHP2 N-SH2 domain T42A 1.11 | SHP2 N-SH2 domain T52S 1.26 | [2] 1.06

B15: REV3L_Y1156 (peptide)
chain: KGPNVYKKTVN
inactive: SHP2 C-SH2 domain E139D 0.405 | [1] 0.409 | SHP2 N-SH2 domain L43F 0.414 | SHP2 N-SH2 domain T42A 0.457 | SHP2 N-SH2 domain T52S 0.479 | [2] 0.465

B16: REV3L_Y1156_Y1156C (peptide)
chain: KGPNVCKKTVN
inactive: SHP2 C-SH2 domain E139D 1.23 | [1] 1.2 | SHP2 N-SH2 domain L43F 1.22 | SHP2 N-SH2 domain T42A 1.15 | SHP2 N-SH2 domain T52S 1.18 | [2] 0.959

B17: RFX2_Y108_E110K (peptide)
chain: SSTASYFKAPG
inactive: SHP2 C-SH2 domain E139D 0.688 | [1] 0.648 | SHP2 N-SH2 domain L43F 0.722 | SHP2 N-SH2 domain T42A 0.553 | SHP2 N-SH2 domain T52S 0.689 | [2] 0.587

B18: RFX2_Y82_A86T (peptide)
chain: GGDAVYTNGTI
inactive: SHP2 C-SH2 domain E139D 0.777 | [1] 0.848 | SHP2 N-SH2 domain L43F 0.811 | SHP2 N-SH2 domain T42A 0.665 | SHP2 N-SH2 domain T52S 0.636 | [2] 1.09

B19: RHBDD1_Y264 (peptide)
chain: RNYDTYTAGLS
inactive: SHP2 C-SH2 domain E139D 0.5 | [1] 0.61 | SHP2 N-SH2 domain L43F 0.582 | SHP2 N-SH2 domain T42A 0.463 | SHP2 N-SH2 domain T52S 0.539 | [2] 0.585

B20: RHBDD1_Y264_D262G (peptide)
chain: RNYGTYTAGLS
inactive: SHP2 C-SH2 domain E139D 0.615 | [1] 0.547 | SHP2 N-SH2 domain L43F 0.546 | SHP2 N-SH2 domain T42A 0.674 | SHP2 N-SH2 domain T52S 0.647 | [2] 0.87

B21: RHO_Y136_C140S (peptide)
chain: LAIERYVVVSK
inactive: SHP2 C-SH2 domain E139D 0.869 | [1] 0.67 | SHP2 N-SH2 domain L43F 1.82 | SHP2 N-SH2 domain T42A 0.978 | SHP2 N-SH2 domain T52S 0.669 | [2] 0.483

B22: RHO_Y136_L131P (peptide)
chain: PAIERYVVVCK
inactive: SHP2 C-SH2 domain E139D 0.684 | [1] 0.932 | SHP2 N-SH2 domain L43F 0.673 | SHP2 N-SH2 domain T42A 0.745 | SHP2 N-SH2 domain T52S 0.843 | [2] 1.21

B23: RHO_Y136_R135W (peptide)
chain: LAIEWYVVVCK
inactive: SHP2 C-SH2 domain E139D 0.286 | [1] 0.596 | SHP2 N-SH2 domain L43F 0.495 | SHP2 N-SH2 domain T42A 0.666 | SHP2 N-SH2 domain T52S 0.532 | [2] 1.04

B24: RHO_Y301_K296E (peptide)
chain: ESAAIYNPVIY
inactive: SHP2 C-SH2 domain E139D 1 | [1] 0.924 | SHP2 N-SH2 domain L43F 0.803 | SHP2 N-SH2 domain T42A 0.568 | SHP2 N-SH2 domain T52S 0.853 | [2] 0.805

B25: RHO_Y301_S297R_YF (peptide)
chain: KRAAIYNPVIF
inactive: SHP2 C-SH2 domain E139D 1.15 | [1] 1.15 | SHP2 N-SH2 domain L43F 1.32 | SHP2 N-SH2 domain T42A 2.33 | SHP2 N-SH2 domain T52S 1.13 | [2] 1.01

B26: RHOA_Y42 (peptide)
chain: TVFENYVADIE
inactive: SHP2 C-SH2 domain E139D 0.815 | [1] 0.709 | SHP2 N-SH2 domain L43F 0.572 | SHP2 N-SH2 domain T42A 0.649 | SHP2 N-SH2 domain T52S 0.726 | [2] 0.741

B27: RICTOR_Y835_S837F_YF (peptide)
chain: KWHREYNFKFV
inactive: SHP2 C-SH2 domain E139D 2.52 | [1] 2.49 | SHP2 N-SH2 domain L43F 2.48 | SHP2 N-SH2 domain T42A 2.05 | SHP2 N-SH2 domain T52S 2.41 | [2] 2.53

B28: RICTOR_Y835_YF (peptide)
chain: KWHREYNSKFV
inactive: SHP2 C-SH2 domain E139D 1.72 | [1] 1.59 | SHP2 N-SH2 domain L43F 1.52 | SHP2 N-SH2 domain T42A 1.4 | SHP2 N-SH2 domain T52S 1.55 | [2] 1.46

B29: RIN1_Y681 (peptide)
chain: YKEQGYHRLPP
inactive: SHP2 C-SH2 domain E139D 1.03 | [1] 0.803 | SHP2 N-SH2 domain L43F 0.725 | SHP2 N-SH2 domain T42A 0.689 | SHP2 N-SH2 domain T52S 0.753 | [2] 0.989

B30: RIN1_Y681_P686S (peptide)
chain: YKEQGYHRLPS
inactive: SHP2 C-SH2 domain E139D 0.875 | [1] 0.777 | SHP2 N-SH2 domain L43F 0.81 | SHP2 N-SH2 domain T42A 0.584 | SHP2 N-SH2 domain T52S 0.757 | [2] 0.741

B31: RIOK2_Y348 (peptide)
chain: EKAEVYGSENE
inactive: SHP2 C-SH2 domain E139D 0.334 | [1] 0.511 | SHP2 N-SH2 domain L43F 0.561 | SHP2 N-SH2 domain T42A 0.462 | SHP2 N-SH2 domain T52S 0.405 | [2] 0.348

B32: RIPOR2_Y316 (peptide)
chain: LEITWYPFDVE
inactive: SHP2 C-SH2 domain E139D 1.21 | [1] 1.7 | SHP2 N-SH2 domain L43F 1.29 | SHP2 N-SH2 domain T42A 1.34 | SHP2 N-SH2 domain T52S 1.1 | [2] 1.53

B33: RITA1_Y109_S113W (peptide)
chain: SHTPSYCDEWL
inactive: SHP2 C-SH2 domain E139D 0.858 | [1] 0.859 | SHP2 N-SH2 domain L43F 0.913 | SHP2 N-SH2 domain T42A 0.868 | SHP2 N-SH2 domain T52S 0.711 | [2] 1.01

B34: RLF_Y671_R668K (peptide)
chain: QDKDLYPCPGT
inactive: SHP2 C-SH2 domain E139D 0.657 | [1] 0.689 | SHP2 N-SH2 domain L43F 0.695 | SHP2 N-SH2 domain T42A 0.617 | SHP2 N-SH2 domain T52S 0.519 | [2] 1.07

B35: RMI1_Y450 (peptide)
chain: REVVNYVQKRN
inactive: SHP2 C-SH2 domain E139D 0.816 | [1] 0.781 | SHP2 N-SH2 domain L43F 0.726 | SHP2 N-SH2 domain T42A 0.615 | SHP2 N-SH2 domain T52S 0.866 | [2] 0.766

B36: RMI1_Y450_N455S (peptide)
chain: REVVNYVQKRS
inactive: SHP2 C-SH2 domain E139D 0.556 | [1] 1.01 | SHP2 N-SH2 domain L43F 0.839 | SHP2 N-SH2 domain T42A 0.627 | SHP2 N-SH2 domain T52S 0.756 | [2] 1.12

B37: RNASEH2A_Y206_D205E (peptide)
chain: DLDTEYGSGYP
inactive: SHP2 C-SH2 domain E139D 0.56 | [1] 0.659 | SHP2 N-SH2 domain L43F 0.646 | SHP2 N-SH2 domain T42A 0.597 | SHP2 N-SH2 domain T52S 0.569 | [2] 0.672
